Measured values: the RNAGym collection of RNA variant scans (doi:10.7554/elife.90254)
Read counts are not given, so values of variants with three or more changes are uncertain.

B1: LINE1-mini (parent)
chain: GGCAGAGCUCAACACAGCGUGGCAAAGUGGCUGUGGCUAGACUGCC

Variants of: B1
Experiment: self-cleavage, relative activity (ratio to wild type); higher = more cleavage; in vitro, sequencing; the parent is a self-cleaving ribozyme
Work on C13A C18A C37A G40U yielded a self-cleavage of 0.01. A12G C37G A41U gave a self-cleavage of 0.15. With C13A G19U C31A G35U G40U the self-cleavage was 0.08. Variant C13G G21A C23A C45A C46A has a self-cleavage of 0.11. Work on C13A G19U G29A C31U U32C yielded a self-cleavage of 0.06. With A12U C15A G19U G35A the self-cleavage was 0.02. In the case of C13G A26U G40U, the self-cleavage is reported as 0. Work on A12G U20C G27U A39U yielded a self-cleavage of 0.02. A12U U38G G44C gave a self-cleavage of 0. With C13A G17C C18U U20G G29A the self-cleavage was 0.03. Work on C13A G22C G30U yielded a self-cleavage of 0.03. For C13G C31G G36C, the self-cleavage was 0.02. Variant A12G C13U G30A G36U has a self-cleavage of 0.02. Variant A12U A14U G19U G21C U32G C45G has a self-cleavage of 0. For C13A C18G G36A G40U, the self-cleavage was 0.14. With C13G C37U A41U C42G U43C the self-cleavage was 0.12. Variant A12G G36U G40A has a self-cleavage of 0.06. C13A G22C C31A C46G gave a self-cleavage of 0. With A12G G33U G35A the self-cleavage was 0.06. In the case of A12U C37U C45A, the self-cleavage is reported as 0.01. For A12U A25G G30A, the self-cleavage was 0.16. C13A G21U C42U showed a self-cleavage of 0.18. C13G A16C G33A C37G showed a self-cleavage of 0.09. With A12G C23U G29C the self-cleavage was 0.03. In the case of A12U U20A A39C, the self-cleavage is reported as 0.02. Work on A12G G17A C42G yielded a self-cleavage of 0.04. In the case of C13A G36U C37U G44U, the self-cleavage is reported as 0.2. Variant C13G C31A C45G has a self-cleavage of 0.01. Variant C13A C15U G29C has a self-cleavage of 0.07. Work on C13G G17U G22A G30C yielded a self-cleavage of 0.01. C13A U32C U43G gave a self-cleavage of 0.01. Work on A12G G21U G22A G29A C46A yielded a self-cleavage of 0.05. Variant C13A C15G G22C C31A C42A has a self-cleavage of 0. C13A G27U A39G showed a self-cleavage of 0.24. In the case of C13G A24G G35C G44U, the self-cleavage is reported as 0.49. With C13G G21A G22A the self-cleavage was 0.51. With A12U C13U C31U A39G the self-cleavage was 0.07. Variant A12U C13U G30A C45U has a self-cleavage of 0.06. With C13G G21C C37U U43C C46U the self-cleavage was 0.08. For C13G C18G U20A C23U A24C U28A U32A, the self-cleavage was 0.02. For C13A C18A G33A G40U U43C, the self-cleavage was 0.06. C13A G22A A25U A26G G27A C37A C42G C46G showed a self-cleavage of 0.05. C13A C15U A24U showed a self-cleavage of 0.08. C13G A16C C23G A41G G44C gave a self-cleavage of 0. With C13A G36U C42G the self-cleavage was 0.05. With C13A A14C A16U C45G the self-cleavage was 0.17. Work on C13A G22U G44U yielded a self-cleavage of 0.17. With A12G G19C G22U G27A G29C the self-cleavage was 0. A12U G27U U32G G35C gave a self-cleavage of 0.01. A12U U20C C37A A41C C45G gave a self-cleavage of 0. C13A G17U G22A U34G gave a self-cleavage of 0.02. A12G U20A A39U gave a self-cleavage of 0.04. In the case of A12G G22C C46G, the self-cleavage is reported as 0.07. For A12G C23U C31A, the self-cleavage was 0.02. Work on C13A A24C G35A G36C G44C yielded a self-cleavage of 0.02. For C13G C18A G21A G33C U38A G40C G44C C46A, the self-cleavage was 0. For A12U G27A C31A, the self-cleavage was 0.05. Variant C13A A24U G36A A41C has a self-cleavage of 0.02. For A12U C18U U34A U43A, the self-cleavage was 0.05. In the case of C13A G29C G36A G40U, the self-cleavage is reported as 0.39. A12U U38G C42A gave a self-cleavage of 0.01. C13A C23A G35C gave a self-cleavage of 0.32. In the case of C13A A16G U38A, the self-cleavage is reported as 0. Work on A12G U20C C37G yielded a self-cleavage of 0.01. C13A G17U G36A gave a self-cleavage of 0.04. With A12U C18U A26C G27C U28C G30C U43A the self-cleavage was 0.29. Variant C13A U32G C37A has a self-cleavage of 0.02. A12G A26U C31G U32C G33C U43G gave a self-cleavage of 0.02. For C13A C15A A26G G30U G33U A39C, the self-cleavage was 0.08. A12G G17U A41U showed a self-cleavage of 0.02. C13A G21A G33A gave a self-cleavage of 0.1. Work on C13A G21A U32G C37U U38A G44A yielded a self-cleavage of 0.17. For A12U C15G G30A, the self-cleavage was 0.04. A12G G17C C31U gave a self-cleavage of 0.03. For C13G A16G A39U, the self-cleavage was 0.03. C13G C18A G30A G35U gave a self-cleavage of 0.08. A12G U20A U32A gave a self-cleavage of 0.02. C13G C37U U38G gave a self-cleavage of 0.07. Work on C13A G21C A39G G40U yielded a self-cleavage of 0.02. Variant A12U U20C A26C G29C has a self-cleavage of 0.09. In the case of A12G G19A G36A C45G, the self-cleavage is reported as 0.02. Work on C13G G17A C31U U34A A39C C46U yielded a self-cleavage of 0.01. In the case of A12U U32C A41G C42G, the self-cleavage is reported as 0.01. With C13G C18A G19A C31U the self-cleavage was 0.06. Variant C13A G33A G36A has a self-cleavage of 0.1. For A12U C23G A25C, the self-cleavage was 0.12. With A12U C13A U28G the self-cleavage was 0.06. For A12G U34A A41C, the self-cleavage was 0.01. Variant A12G G44U C45A has a self-cleavage of 0. C13A G17U G21A G29C G30A U43C showed a self-cleavage of 0. C13G A26U U34G C46U showed a self-cleavage of 0.02. A12U C31A C37U U38A gave a self-cleavage of 0. Work on C13A C15U A16U U20C C23G yielded a self-cleavage of 0.34. A12G G30U A41U showed a self-cleavage of 0.02. In the case of A12G G21A G33A, the self-cleavage is reported as 0.14. Work on C13A A26G C31U G35U yielded a self-cleavage of 0.12. C13A U32A G33U gave a self-cleavage of 0.01. Work on C13A A25C U43G C46G yielded a self-cleavage of 0.06. A12U C13G C18U A25U showed a self-cleavage of 0.06. In the case of A12G G17C U20G A26U, the self-cleavage is reported as 0.01. A12G C37A A39G C46A showed a self-cleavage of 0.05. Work on A12G C13G C37G yielded a self-cleavage of 0. Work on C13A U28G U32C yielded a self-cleavage of 0.13. A12U C13A A24G G40U showed a self-cleavage of 0. Variant C13A U20C C45G has a self-cleavage of 0.06. Work on C13A U20C C45A yielded a self-cleavage of 0.05. Variant A12G C15G A16C C23U has a self-cleavage of 0.03. Variant C13A G22U G40U has a self-cleavage of 0.13. For C13G A26G G27C G36U C37G, the self-cleavage was 0.02. C13A A16U C18U G19U G22C C23A C45U showed a self-cleavage of 0.04. Work on A12U C31A G35A yielded a self-cleavage of 0.03. A12U C18U C23G showed a self-cleavage of 0.09. Variant A12U C13A G17C G35A has a self-cleavage of 0.04. C13A U28C C31A G40U showed a self-cleavage of 0. C13A C18A G22A C31U A41U showed a self-cleavage of 0.01. C13G A39C A41C showed a self-cleavage of 0.02. C13G C18A A25G G27U C45U showed a self-cleavage of 0.11. In the case of C13A G22U A25G A39U G44C, the self-cleavage is reported as 0. A12U C23A C31G gave a self-cleavage of 0.05. With C13A A14G G40A the self-cleavage was 0.09. For A12G C13G G36A, the self-cleavage was 0. With A12U G21A G22A C23U A26C the self-cleavage was 0.14. Variant C13A A14U G21A G29A has a self-cleavage of 0.12. C13A A16C C31A gave a self-cleavage of 0.03. Variant A12U G30C C37U U38G has a self-cleavage of 0. With C13A G27A G36C G40U the self-cleavage was 0.27. Variant C13G A16G A39U C42G has a self-cleavage of 0.01. Work on A12U C23U A39G yielded a self-cleavage of 0.02. A12G G22A G27U G44C gave a self-cleavage of 0.05. In the case of A12U G30C U32G G35C C45U, the self-cleavage is reported as 0.01. For A12G C23U G36U, the self-cleavage was 0. With C13A A14U G19A G21A A26U A41U the self-cleavage was 0.06. For A12U G30U C37A, the self-cleavage was 0.05. With A12G C15U G21C the self-cleavage was 0.04. With C13G G21U A25C U28A the self-cleavage was 0.21. Variant A12U C13A G21C U28C G30C has a self-cleavage of 0.06. In the case of A12G A24G G29A U32A C45A, the self-cleavage is reported as 0.01. With A12G C15A G17C U38G the self-cleavage was 0. Variant A12G A26U C31G has a self-cleavage of 0.13. For C13A A24G U34G, the self-cleavage was 0.02. In the case of C13A C42U C46G, the self-cleavage is reported as 0.03. With A12U U32C G33C G40U the self-cleavage was 0.05. In the case of A12U A16C G30U G44U, the self-cleavage is reported as 0. Variant A12G U28C U32A G36C U38G has a self-cleavage of 0. Work on A12G G29C G40A yielded a self-cleavage of 0.03. Variant C13A U43G C45A has a self-cleavage of 0.35. Work on A12U C18G U34C C46A yielded a self-cleavage of 0.02. Work on C13A A14C A25U C45U yielded a self-cleavage of 0.08. Work on A12U U20C C23U A24U G29C C31A G33U yielded a self-cleavage of 0.02. In the case of A12U C15A G21A G22C, the self-cleavage is reported as 0.06. With C13G A16G C18G U20C G22U C31A C42A the self-cleavage was 0.01. With C13A A14U G29C C46U the self-cleavage was 0.19. With A12U G35U G36A U38C the self-cleavage was 0.11. Variant A12U U28A G40U has a self-cleavage of 0.07. With A12G G27U C42A the self-cleavage was 0.01. With C13A U20A C31A G33A C42G the self-cleavage was 0.02. Work on C13G C18A G29U yielded a self-cleavage of 0.22. With A12G A24G U38A A41U the self-cleavage was 0.12. In the case of C13A G36A C42G, the self-cleavage is reported as 0.01. In the case of A12U C18G U34G A41U, the self-cleavage is reported as 0.02. Variant C13A C31A U32G G33A G44U has a self-cleavage of 0.06. In the case of C13G G19A G29C C37U C42U, the self-cleavage is reported as 0.09. With A12U C15A A16U G19U G44C the self-cleavage was 0.04. With C13A G17A C18A G22A the self-cleavage was 0.09. With A12G C13U C31A U32C U38A C45U the self-cleavage was 0. In the case of A12U G21C G27U A41U, the self-cleavage is reported as 0.08. For C13G G19U G40U, the self-cleavage was 0.
